Results on 54 sequences are retold here after PMC7819943, “Rice protein-binding microarrays: a tool to detect cis-acting elements near promoter regions in rice”.

Some of the results follow.

This experiment deals with T1, OsWOX13 (Oryza sativa, UniProt Q5QMM3 1-267).
T1 sequence: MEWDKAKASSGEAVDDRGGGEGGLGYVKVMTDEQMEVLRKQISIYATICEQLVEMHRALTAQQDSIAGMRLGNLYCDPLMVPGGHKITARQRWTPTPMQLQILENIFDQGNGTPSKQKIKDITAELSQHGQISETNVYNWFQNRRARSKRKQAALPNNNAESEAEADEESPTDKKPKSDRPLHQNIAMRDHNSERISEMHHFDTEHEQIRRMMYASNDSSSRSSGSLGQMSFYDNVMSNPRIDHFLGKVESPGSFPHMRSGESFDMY
Nature of the experiment: protein-binding microarray (RPBM); PBS, 2% BSA, 51.3 ng/ul salmon testes DNA, 50 uM zinc acetate, 200 nM TF, 25 C, 1 h; high values mean tight binding. As to conditions: protein: recombinant; tags: N-terminal polyhistidine and DsRed monomer fusion (pET32a); label: CyDye5-dUTP incorporated in the synthesized complementary strand; 3' TTTTT single-stranded linker to array surface; dsDNA, one strand shown. Put shortly: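 Binding signal here means per-feature fluorescence intensity in arbitrary units. The values were read on an Axon 4000B scanner after a custom Agilent array, double-stranded by primer extension with Cy5-dUTP, was incubated with 200 nM protein at 25 °C for 1 h in PBS with 2% BSA, salmon testes DNA and 50 µM zinc acetate, then washed. The proteins were transcription factors with an N-terminal polyhistidine tag and DsRed, expressed in E. coli BL21-CodonPlus and purified on Ni–NTA.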
As to “ACAAAATCTGATAATTGCAGCCTCCCAAGTCCCAACCTTCCGGAGTCACCTAGTGCAG”, the binding signal was 5520 fluorescence intensity (a.u.).

With “ATCACATATTCTAATTGATCCTGTTCCTGATCATGTACCGCGGAGTCACCTAGTGCAG”, the binding signal is 12600 fluorescence intensity (a.u.).

Regarding “AACAGCAGCAAATTGATGGAAGCCCCAGGTTATTGGCTGGCGGAGTCACCTAGTGCAG”, the binding signal was 14900 fluorescence intensity (a.u.).

As for “TTCCTGATAGATGGTGTCAGGCATTTCACTGAATGATCTACGGAGTCACCTAGTGCAG”, the binding signal is 18600 fluorescence intensity (a.u.).

Take “TCTTTTATAATCTTTAACTGATTAAATCAAACGATTCTAACGGAGTCACCTAGTGCAG”: the binding signal was 4540 fluorescence intensity (a.u.).

Turning to “AATTTGATTTGATTACATTACACATTTATACATCTCTCATCGGAGTCACCTAGTGCAG”, the binding signal is 42200 fluorescence intensity (a.u.).

In the case of “ATATAAGTGATTTTGGTTGGATGTGACATATCCTAGTACACGGAGTCACCTAGTGCAG”, the binding signal was 5120 fluorescence intensity (a.u.).

Regarding “GGTAATGACGAAATTTGACCAATTTTGGCATTAATATATTCGGAGTCACCTAGTGCAG”, the binding signal was 13100 fluorescence intensity (a.u.).

Consider “ATTAATTTCTAGATGTAATCTTATCTTCTATATATGCATACGGAGTCACCTAGTGCAG”, for which the binding signal was 11000 fluorescence intensity (a.u.).

For the sequence “TCCGTATGTTAACAGATTAGGTCCATATAAATAGAAAGGACGGAGTCACCTAGTGCAG”, the binding signal is 5480 fluorescence intensity (a.u.).

For the sequence “AAATCCAATTGAATAAATTATGTATGTTTAAAAGAGTAATCGGAGTCACCTAGTGCAG”, the binding signal was 5630 fluorescence intensity (a.u.).

Turning to “AATATTGATGCTTAAATTTCTTTCGAAGATCCTATGGAAGCGGAGTCACCTAGTGCAG”, the binding signal is 3840 fluorescence intensity (a.u.).

As to “ATTGATGGGTACATTGAGATGGAGCTGTTTGGACAAGTTGCGGAGTCACCTAGTGCAG”, the binding signal was 7520 fluorescence intensity (a.u.).

Take “AACTTTAGACATATATAAATTTATAGACAAATATATAGTACGGAGTCACCTAGTGCAG”: the binding signal was 10200 fluorescence intensity (a.u.).

Take “CTTTAATTAAAGATTCCTATCCTCTCCAATGATTCTTTGCCGGAGTCACCTAGTGCAG”: the binding signal is 31200 fluorescence intensity (a.u.).

As for “ACTAATGTAATTTCAATATATTTATAATGTAAGTCCCTAACGGAGTCACCTAGTGCAG”, the binding signal is 13900 fluorescence intensity (a.u.).

In the case of “CTCTGATTTCGTAGAGGTCCTGCATATACTTGTTGCTTGCCGGAGTCACCTAGTGCAG”, the binding signal is 5950 fluorescence intensity (a.u.).

Regarding “TATAAATTATATGTGTAGCTGTACTAGCTAGAGTGTATCTCGGAGTCACCTAGTGCAG”, the binding signal is 8200 fluorescence intensity (a.u.).

As to “CAGTTGATAATTAATTAGTGTCATAATCCAATGTTGCCGTCGGAGTCACCTAGTGCAG”, the binding signal was 45800 fluorescence intensity (a.u.).

Turning to “CCTCGCGCGCAGATAATTATCACAACTTATGGGGAGCTTGCGGAGTCACCTAGTGCAG”, the binding signal is 3290 fluorescence intensity (a.u.).

Regarding “ATGTGAATTATGAAAGATGATGATTTAACGTGCTTTTATTCGGAGTCACCTAGTGCAG”, the binding signal was 5500 fluorescence intensity (a.u.).

“AGGTGATGACGTGGATAGTCTGACAGGTGGGGCACACGTGCGGAGTCACCTAGTGCAG”: the binding signal is 6570 fluorescence intensity (a.u.).

For “TGATAGACATATTTCAATCCAACTACCTATTCTTTTAATGCGGAGTCACCTAGTGCAG”, the binding signal is 4520 fluorescence intensity (a.u.).

As for “GCTGTTTATTTATATTTATTTATTGTGTATTTGATATCCACGGAGTCACCTAGTGCAG”, the binding signal is 6200 fluorescence intensity (a.u.).

Regarding “ATGACAACAACAATTATTGTTACAATTATTGCATATGGTACGGAGTCACCTAGTGCAG”, the binding signal was 7160 fluorescence intensity (a.u.).

With “CGTATTAATTCACTACCATTACAATCACTAATATACAGGCCGGAGTCACCTAGTGCAG”, the binding signal is 4030 fluorescence intensity (a.u.).

With “AACCAATCAATCTAGAATTCCACGCATATTCATTAGTTTCCGGAGTCACCTAGTGCAG”, the binding signal is 23600 fluorescence intensity (a.u.).

Take “TTTAATGTTAGATTTAATAAAATTAATTTATTACTATAAACGGAGTCACCTAGTGCAG”: the binding signal was 13700 fluorescence intensity (a.u.).

As for “CCAAATTGGATCCAAATTTATTTTCCACGATCCAATTTGCCGGAGTCACCTAGTGCAG”, the binding signal was 37600 fluorescence intensity (a.u.).

Consider “ACATCTAAATTACTCCTGGACTCCTCGTCGTCGTGAAAGGCGGAGTCACCTAGTGCAG”, for which the binding signal is 3160 fluorescence intensity (a.u.).

Regarding “CTGGTTCTTGATTATTATTAGGATTAGTTTGTTCCTTTGTCGGAGTCACCTAGTGCAG”, the binding signal was 16900 fluorescence intensity (a.u.).

As for “CTTAAATTTTACAATACCGTTTATATAAAGATGGTTTTACCGGAGTCACCTAGTGCAG”, the binding signal is 6810 fluorescence intensity (a.u.).

Take “TAAATATGACCTAATTAAGTCTCATCATGAGCCGCTACATCGGAGTCACCTAGTGCAG”: the binding signal is 6180 fluorescence intensity (a.u.).

“TTGACTGGTGGATTATTATTATTATGCTGGAATTTGACCACGGAGTCACCTAGTGCAG”: the binding signal was 27900 fluorescence intensity (a.u.).

Consider “CTTCATGATGTGATTTAAACTCTAGTTAAGATTTAGATTTCGGAGTCACCTAGTGCAG”, for which the binding signal was 8910 fluorescence intensity (a.u.).

On to “CTGAAACTGCAACTAACTGACACGATGATGATGTAGGTGTCGGAGTCACCTAGTGCAG”, for which the binding signal was 14700 fluorescence intensity (a.u.).

Take “ATAGTTAATGCTCAATTAATCATGAGCCAATGGCTCACCTCGGAGTCACCTAGTGCAG”: the binding signal was 17800 fluorescence intensity (a.u.).

As for “TGGGTCAACTCAATCAAGACCAGTCAAACTAAGCAGAAAGCGGAGTCACCTAGTGCAG”, the binding signal was 6050 fluorescence intensity (a.u.).

As for “GTCTATATTTAATATTCTAAATTAGCGTCTAAACATCCGACGGAGTCACCTAGTGCAG”, the binding signal was 7620 fluorescence intensity (a.u.).

Regarding “TTGACAGATAATGTGATTCTTAGGGCCCCTTGTATCATTCCGGAGTCACCTAGTGCAG”, the binding signal is 18400 fluorescence intensity (a.u.).

Consider “CGCCTGCAAGATTGACTCTTGCATAAAAGCATGCTCTCTCCGGAGTCACCTAGTGCAG”, for which the binding signal is 13300 fluorescence intensity (a.u.).

For “TAGGATTTAATTTGTGCAGTTGTACGCACGTAATCCAAGTCGGAGTCACCTAGTGCAG”, the binding signal is 6900 fluorescence intensity (a.u.).

On to “AATCAATTAATTCATTTAGGATCTAAACTTAGGTTACGGACGGAGTCACCTAGTGCAG”, for which the binding signal is 32600 fluorescence intensity (a.u.).

With “TTTTACCCCGTTTTCGCTAATTAATTCTGTATTTATGGCACGGAGTCACCTAGTGCAG”, the binding signal is 4140 fluorescence intensity (a.u.).

Consider “TCTTAACTAATCAAAATAGGTTAAAATAGGTACTTCGATGCGGAGTCACCTAGTGCAG”, for which the binding signal is 12200 fluorescence intensity (a.u.).

Take “CCTGACATCTCTCAATCGGACGGTGGATACCACCTCACCGCGGAGTCACCTAGTGCAG”: the binding signal was 3620 fluorescence intensity (a.u.).

Turning to “TGTTGTGATTGGTTGAGAAATGTGGGTATGTGAGAAAATACGGAGTCACCTAGTGCAG”, the binding signal is 15200 fluorescence intensity (a.u.).

As to “CACATTAATGGCTGATCTGTTATACCCACCTACTCTGGACCGGAGTCACCTAGTGCAG”, the binding signal was 3390 fluorescence intensity (a.u.).

As to “TTACACGCAATCTGTATAATTAGTTTTGTTCTTTGTCTATCGGAGTCACCTAGTGCAG”, the binding signal was 3330 fluorescence intensity (a.u.).

In the case of “GTTGAGGGATAATAATTGGACTTTTACCTAGATGTTTCGACGGAGTCACCTAGTGCAG”, the binding signal is 6460 fluorescence intensity (a.u.).

As to “TGTAATTATAATTTATTTTGTGATGAGTTGTTTTATCACTCGGAGTCACCTAGTGCAG”, the binding signal was 55800 fluorescence intensity (a.u.).

Regarding “GTGGATTGAATCCCCTACGGTTGAGCCGCGAGCGCTTCATCGGAGTCACCTAGTGCAG”, the binding signal was 8380 fluorescence intensity (a.u.).

Take “GTTTAATATTTATAATTAGCGTCCAAACATCCGATGTGATCGGAGTCACCTAGTGCAG”: the binding signal is 17500 fluorescence intensity (a.u.).

On to “ACATAATTTATTGTCTGGTTTTGGCTAAAGAGAAATTAAACGGAGTCACCTAGTGCAG”, for which the binding signal was 14100 fluorescence intensity (a.u.).
